# In publication PMC6919601, “Identification of Plasmodium dipeptidyl aminopeptidase allosteric inhibitors by high throughput screening” (PLoS ONE, 2019):
# Screen size: about 110,000 compounds; about 230 (0.21%) showed an effect of 50% or more. The list shows a part of the results.
# Target: DPAP1 (Plasmodium falciparum, UniProt Q8IIJ9)
# Test: primary screen, percent inhibition; read by cleavage of a fluorogenic dipeptide substrate; higher = more effect of the substance
# Parameters: species or system P. falciparum D10 trophozoite lysates; single well
# 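Also: 30 min substrate incubation versus DMSO and 10 µM JCP410 controls.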
# Sequence of DPAP1 (Q8IIJ9 whole entry, looked up): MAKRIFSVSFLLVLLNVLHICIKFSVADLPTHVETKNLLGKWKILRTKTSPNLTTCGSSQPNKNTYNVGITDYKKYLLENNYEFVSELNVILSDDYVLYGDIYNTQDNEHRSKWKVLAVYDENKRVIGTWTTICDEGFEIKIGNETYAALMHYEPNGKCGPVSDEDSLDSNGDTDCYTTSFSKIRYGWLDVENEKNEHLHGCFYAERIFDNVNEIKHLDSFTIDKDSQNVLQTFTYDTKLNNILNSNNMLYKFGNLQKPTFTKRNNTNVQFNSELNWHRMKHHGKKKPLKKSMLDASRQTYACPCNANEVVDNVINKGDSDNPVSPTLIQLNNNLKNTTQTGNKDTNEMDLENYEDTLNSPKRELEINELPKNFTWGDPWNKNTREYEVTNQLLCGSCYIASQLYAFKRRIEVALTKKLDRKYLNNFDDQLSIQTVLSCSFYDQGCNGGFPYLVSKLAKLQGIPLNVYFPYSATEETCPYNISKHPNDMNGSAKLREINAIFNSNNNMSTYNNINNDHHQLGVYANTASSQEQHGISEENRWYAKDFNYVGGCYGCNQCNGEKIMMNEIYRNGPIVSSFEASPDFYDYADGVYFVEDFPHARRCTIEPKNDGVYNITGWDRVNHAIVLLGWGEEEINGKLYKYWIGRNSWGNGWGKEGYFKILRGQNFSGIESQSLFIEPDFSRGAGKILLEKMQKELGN
row,SMILES,% Inhibition @ 10 uM [%]
1,COc1cccc(CSc2nc3nccnc3c(=O)n2Cc2ccccc2)c1,-1.87
2,Cc1ccc(-c2nc3nc(C)c(Cl)c(C)n3n2)cc1,-2.4
3,O=C(c1cccc(Cl)c1)N1CCN(Cc2ccccc2)CC1,1.13
4,COc1ccc(/C(O)=C/C=N/c2cccc3cccnc23)cc1,2.46
5,Cn1c(=O)c2c(-c3ccccc3)n(-c3ccccc3N)cc2n(C)c1=O,-2.77
6,COc1ccc2c(=O)c(-c3ccc4c(c3)OCCO4)c(C)oc2c1,1.87
7,Cc1cc(C)n(CNc2nc(C(F)(F)F)cs2)n1,3.27
8,CCCC[C@H](NC(=O)[C@H](Cc1ccc2ccccc2c1)NC(=O)c1cccc(CN)c1)C(=O)CO,-5.64
9,COc1cccc2cc(-c3nc(-c4ccncc4)no3)c(=O)oc12,-0.264
10,COCCNC(=O)c1cc(-c2ccc(Br)cc2)nc2ccccc12,2.87
11,CCc1ccc(C2c3c(-c4ccccc4O)n[nH]c3C(=O)N2CCO)cc1 (stereo not shown),-1.35
12,COC(=O)C1=C(O)/C(=C\c2ccc(OC)cc2)N=C1C,-2.48
13,c1ccc(C2CCC(NCCc3ccccn3)CC2)cc1 (stereo not shown),3.48
14,CN(C)c1nc(F)c(F)c(S(=O)(=O)c2ccccc2)c1F,-4.67
15,CCCOc1ccc2c(c1)C(=NN=C(N)N)c1cc(OCCC)ccc1-2,-2.27
16,CCOc1ccc(C2CC(=O)NC2=O)cc1 (stereo not shown),0.774
17,C=CCn1c(=N)c(C(=O)OCC)cc2c(=O)n3cc(C)ccc3nc21,0.279
18,COc1cc(C2c3c(-c4ccccc4O)n[nH]c3C(=O)N2Cc2ccco2)cc(OC)c1OC (stereo not shown),5.17
19,CCOc1ccc(-c2nnc(NC(=O)C(=O)c3cc(C)n(CCOC)c3C)s2)cc1,-1.06
20,O=C(NCCc1ccsc1)c1cnn(-c2ccc(F)cc2F)c1C1CCNCC1,-3.45
21,Cc1[nH]nc2c1C(c1cccc(Cl)c1Cl)C(C#N)=C(N)O2 (stereo not shown),-0.142
22,N#Cc1ccc(-c2cccnc2)nc1SCCOC1CCCCO1 (stereo not shown),0.343
23,CC(C)Cn1c(=O)c2ccccc2n2c(-c3ccc(Cl)cc3)nnc12,-3.51
24,COc1ccc(CCNC(=O)CSc2cc(Cl)nc3ccc(C)cc23)cc1OC,1.08
25,O=C(Cc1ccc(F)cc1F)Nc1ccc(F)cc1,-0.414

row,SMILES,% Inhibition @ 10 uM [%]
1,COc1ccc(-c2cn3c(n2)sc2cc(C(=O)NCc4cccnc4)ccc23)cc1,3
2,O=C1OC(c2ccccc2)OC(=O)C1=Cc1ccc(-c2cccc(C(=O)O)c2)o1 (stereo not shown),35
3,Cc1ccc(S(=O)(=O)N2CCN(CC(O)COc3ccc4ccccc4c3)CC2)cc1 (stereo not shown),7.04
4,O=C(CSc1ncnc2[nH]cnc12)c1ccc(Br)cc1,6.79
5,O=C(NCc1ccccc1)/C(=C/c1ccccc1)NC(=O)c1cccc(Br)c1,-6.7
6,COCCCNC(=O)C1CCN(c2nnc(C)c3c(C)n(-c4ccc(Cl)cc4)nc23)CC1,14.3
7,Cc1ccc(NC(=O)COc2ccccc2CO)cc1,-0.999
8,Cc1cc(-c2ccc(C)c(S(=O)(=O)N(C)Cc3cnn(-c4ccccc4)c3)c2)on1,0.879
9,CCCSCCCn1cnc2c3cc(Cl)ccc3nc-2c1O,-3.52
10,COc1ccc(CNC(=O)C2=CC(c3ccc(C)cc3)=NS(=O)(=O)N2C)cc1,2.32
11,COc1ccccc1Oc1coc2cc(OCC(N)=O)ccc2c1=O,-5.01
12,Cc1onc(-c2ccccc2)c1C(=O)NC(C)CCc1ccccc1 (stereo not shown),1.95
13,CC(=O)c1cccc(NC(=O)CN(Cc2ccccc2)S(C)(=O)=O)c1,1.52
14,COc1ccc(NC(=S)c2sc(N3CCOCC3)nc2N2CCOCC2)cc1,3.49
15,COc1ccc2c(c1)c(=O)oc1cc3occ(C(C)(C)C)c3cc12,-0.808
16,O=C1CN(c2nc3ccc(Cl)cc3n3cnnc23)CC(=O)N1CCc1ccccc1,4.33
17,Cc1sc2c(c1C)c(=O)n(CCc1ccccc1)c(=O)n2Cc1ccccc1,10.7
18,COc1ccc2nc3oc(C(=O)NC(C)CCc4ccccc4)cc3cc2c1 (stereo not shown),-3.35
19,COC(=O)CCCC/C(=N\O)c1[nH]c(O)nc1C,-3.66
20,CCc1ccc(CN(C(=O)c2oc3ccccc3c2C)C2CCS(=O)(=O)C2)cc1 (stereo not shown),-1.33
21,COc1ccc(S(=O)(=O)N(CC(=O)Nc2ccc(C)c(Cl)c2)c2ccc(F)cc2)cc1OC,-3.77
22,CCN(C1CCCCC1)S(=O)(=O)c1ccc(F)cc1,3.47
23,O=S(=O)(Nc1ccc(S(=O)(=O)Nc2nccs2)cc1)c1ccc(F)cc1,3.91
24,O=C(NCCC1=CCCCC1)c1ccc2snnc2c1,4.8
25,O=C(NCCCN1CCC(Cc2ccccc2)CC1)C1CC(=O)N(C2CCCC2)C1 (stereo not shown),3.79

row,SMILES,% Inhibition @ 10 uM [%]
1,CC(=O)c1c(C)[nH]c(C(=O)N2CC(C)CC(C)C2)c1C (stereo not shown),4.51
2,N#CC1=C(N)Oc2ccc3ccccc3c2C1c1ccc(F)cc1 (stereo not shown),0.983
3,Cc1cc(Br)ccc1OCC(=O)Nc1ccc(S(=O)(=O)N2CCC(C)CC2)cc1,-5.95
4,CC1CCN(c2ncnc3c2sc2nc(N4CCOCC4)c4c(c23)CC(C)(C)OC4)CC1,-3.92
5,COc1ccc(C(C)=O)cc1N1C(=O)C2C(C1=O)C1C=CC2C12CC2 (stereo not shown),0.475
6,C=CCO/C(O)=C1\C(C)=Nc2nnnn2C1c1ccc(OC)cc1OC (stereo not shown),-5.19
7,Brc1cccc(CN2CCc3c([nH]c4ccccc34)C2)c1,-0.828
8,N#CCNC(=O)[C@H](CSCc1ccccc1)NC(=O)c1cccc(Oc2ccccc2)c1,-3.49
9,CC1=C(c2ccc(C)c(C)c2)S(=O)(=O)N(Cc2ccc(C(=O)NCc3ccc(F)cc3)cc2)C1=O,6.31
10,CN(C)S(=O)(=O)c1ccc(-c2cs/c(=N\c3ccccc3)n2C(C)(C)C)cc1,-2.19
11,COCCNC(=O)c1ccc2c(c1)sc1nc(-c3ccc(F)cc3)cn12,5.37
12,Cc1cccc(NC(=O)CC23CC4CC(CC(C4)C2)C3)n1,1.32
13,COC(=O)C1=C(C)N=c2s/c(=C/c3ccc(Cl)cc3Cl)c(=O)n2C1c1ccccc1 (stereo not shown),-2.35
14,COc1cccc(C2NC(=O)NC(C)=C2C(=O)OCC(F)(F)F)c1 (stereo not shown),10.4
15,CC(C)OCCCNC(=O)c1cc(S(=O)(=O)N2CCCCC2)c[nH]1,-1.97
16,COc1ccc(C=O)cc1Cn1c(=O)n(Cc2ccccc2)c(=O)c2c3c(sc21)CCC3,-0.668
17,O=C(NC1CCCc2ccccc21)C1c2ccccc2Oc2ccccc21 (stereo not shown),-13
18,CCOC(=O)C1=CN(Cc2ccc(F)cc2)C=C(C(=O)OCC)C1c1cc(OC)c(O)c(OC)c1,-6.93
19,COc1ccc(CNC(=O)c2cc(-c3ccc(O)cc3)on2)cc1,0.0654
20,Cc1cccc(C)c1NC(=O)c1ccccc1C(=O)O,6.97
21,O=C(COc1ccc(Cl)cc1)Nc1nnc(S(=O)(=O)NCc2ccccc2)s1,-3.51
22,CSc1ccc(CN2CCCCC2CO)cc1 (stereo not shown),0.215
23,Cc1cc2c(cc3c(SCc4ccc(F)cc4Cl)nncn32)o1,-1.97
24,CN(CC1COc2ccccc2O1)S(=O)(=O)c1ccc(-c2ccc(O)nn2)s1 (stereo not shown),1.95
25,CCc1ccc(-c2cn3c(n2)sc2cc(C(=O)N4CCN(C(=O)c5ccco5)CC4)ccc23)cc1,28.4

row,SMILES,% Inhibition @ 10 uM [%]
1,Cc1nn(CC(=O)NCc2ccccc2Cl)c(=O)c2cc3cc(F)ccc3n12,3.29
2,O=C(NCCC1=CCCCC1)C1CCCN(c2cnccn2)C1 (stereo not shown),0.635
3,O=C(NCCN1CCOCC1)c1cccc(F)c1,-6.06
4,OCC1CCCN(C2CCC(c3ccccc3)CC2)C1 (stereo not shown),3.48
5,COc1ccccc1NC(=O)C1=C(C)N=C2CCCC(O)=C2C1c1ccc(Cl)cc1Cl (stereo not shown),0.658
6,Cc1ccc(O)c(NC(=O)c2nn3c(C(F)(F)F)cc(-c4cccs4)nc3c2Cl)c1,4.52
7,CCn1c2ccccc2c2cc(CN3CCC(Cc4ccccc4)CC3)ccc21,3.16
8,CCc1ccc(NC(=O)CN2C(=O)S/C(=C/c3ccc4c(c3)n(C)c(=O)n4C)C2=O)cc1,-7
9,Cc1nc2ccc(S(=O)(=O)NC(CC(C)C)C(=O)NC3CCC(C)CC3)cc2s1 (stereo not shown),-1.3
10,COc1ccc(NCc2cccc(F)c2)cc1,2.91
11,CC(C)OCCCNc1nc2c(S(=O)(=O)c3ccc(Cl)cc3)nnn2c2ccsc12,5.85
12,C=C(C)C1CCC(C)OC1CN1CCCCC1 (stereo not shown),4.88
13,O=C(NC1CCCC1)c1cc2n(n1)C(C(F)(F)F)CC(c1ccc(F)cc1)N2 (stereo not shown),1.15
14,CCOC(=O)N1CCN(C(=O)c2nc3ccccc3s2)CC1,2.48
15,COc1ccc(N(CC(=O)N2CCN(c3ccccc3)CC2)S(C)(=O)=O)cc1Cl,-10.2
16,COc1ccc(C(=O)O)cc1S(=O)(=O)NCc1ccccn1,-3.5
17,O=C(O)c1ccc(NC(=O)c2ccc3c(c2)C(=O)N(Cc2ccco2)C3=O)cc1,1.39
18,CCCOc1ccc(C(=O)Nc2ccc(Cl)cn2)cc1,-10
19,CC1=CC(C)C2(COC(=O)CN3CCCCC3)COC(c3ccccc3)C1C2C (stereo not shown),6.21
20,Cc1cc(NS(=O)(=O)c2ccc(CN3C(=O)c4cccnc4C3=O)cc2)c2ccccc2n1,-3.54
21,CC(/C=C1\SC(=O)N(CC(=O)Nc2ccccc2O)C1=O)=C\c1ccccc1,21.9
22,Cc1cc(C(=O)NC2CCC(C)CC2)n[nH]1 (stereo not shown),0.181
